Measured values as given in the supplement of paper PMC12217912.
The list shows a part of the results. Sequences were assembled here from the parent chain. Inactive controls read about 0.05.

B1: TEV protease; numbered along this chain (parent)
chain: MGESLFKGPRDYNPISSSICHLTNESDGHTTSLYGIGFGPFIITNKHLFRRNNGTLVVQSLHGVFKVKDTTTLQQHLVDGRDMIIIRMPKDFPPFPQKLKFREPQREERICLVTTNFQTKSMSSMVSDTSCTFPSGDGIFWKHWIQTKDGQCGSPLVSTRDGFIVGIHSASNFTNTNNYFTSVPKNFMELLTNQEAQQWVSGWRLNADSVLWGGHKVFMVKPEEPFQPVKEATQL

Variants of: B1
Test: raw area under fraction-flipped curve 0-4 h after induction (AUC4h, not background-subtracted), DNA-recorder readout of cleavage of the substrate (dimensionless); higher = more cleavage of the substrate by the protease variant
Conditions: temperature: 34 °C; time window: 0-4 h after rhamnose induction
Experimental: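 In vivo DNA recorder in E. coli TOP10(DE3) ΔrhaA at 34 °C. Each TEVp single-site mutant (parent TEVp 0) is paired with a single-site variant of the 7-mer TEVs (canonical ENLYFQ|S). The substrate sits between flexible linkers in a Bxb1-sfGFP-TEVs-SsrA fusion, so cleavage stabilises Bxb1 and speeds flipping of a recombination array, read by NGS. The value is the raw area under the fraction-flipped curve over 0-4 h after rhamnose induction (AUC4h), with ≥20 reads per time point. It is not background-subtracted; inactive controls average about 0.047.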
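Note: Bxb1 expression induced with 0.2% (w/v) L-rhamnose at OD600 near 0.5, cultures sampled hourly, flipped fraction per protease–substrate barcode pair counted by paired-end Illumina sequencing.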

| Variant | area with substrate ENLYFAS | area with substrate ENLYFCS | area with substrate ENLYFDS | area with substrate ENLYFES | area with substrate ENLYFFS | area with substrate ENLYFGS | area with substrate ENLYFIS | area with substrate ENLYFKS | area with substrate ENLYFLS | area with substrate ENLYFMS | area with substrate ENLYFNS | area with substrate ENLYFPS | area with substrate ENLYFRS | area with substrate ENLYFSS | area with substrate ENLYFTS | area with substrate ENLYFVS | area with substrate ENLYFWS | area with substrate ENLYFYS | area with substrate ENLYFHS |
| --- | --- | --- | --- | --- | --- | --- | --- | --- | --- | --- | --- | --- | --- | --- | --- | --- | --- | --- | --- |
| I36M | 0.062 | 0.0357 | 0.0425 | 0.0683 | 0.0617 | 0.0342 | 0.0511 | 0.0546 | 0.0678 | 0.0619 | 0.0638 | 0.061 | 0.0564 | 0.0702 | 0.0554 | 0.067 | 0.0509 | 0.052 |  |
| I36H | 0.0538 | 0.0075 |  |  | 0.0394 |  | 0.0359 | 0.0515 |  | 0.0422 |  | 0.0459 | 0.0274 |  |  | 0.0116 | 0.0321 | 0.0361 | 0.0336 |
| I36W | 0.0527 | 0.0517 | 0.0552 | 0.0633 | 0.0634 | 0.058 | 0.048 | 0.0461 |  | 0.0494 | 0.0637 | 0.0712 |  |  | 0.046 |  | 0.0382 | 0.0571 |  |
| I36Y | 0.0288 |  |  | 0.0506 | 0.0548 | 0.0368 | 0.0438 | 0.0515 | 0.0501 | 0.0562 | 0.0599 | 0.0378 |  | 0.0438 | 0.0523 |  | 0.0484 | 0.0478 | 0.0565 |
| I36T | 0.0294 |  |  | 0.0675 | 0.0703 |  | 0.0509 | 0.0531 |  | 0.0463 | 0.06 | 0.048 | 0.0489 | 0.0557 | 0.0553 | 0.0099 | 0.053 |  | 0.0452 |
| I36S | 0.0362 | 0.0446 | 0.0592 | 0.0591 | 0.0622 | 0.0426 | 0.0479 | 0.0597 |  | 0.0584 | 0.0541 | 0.0504 | 0.0336 | 0.0483 | 0.0443 | 0.042 | 0.0484 | 0.0558 |  |
| H29C | 0.0702 | 0.0565 | 0.0663 | 0.0623 | 0.0806 | 0.0543 | 0.0575 | 0.0634 | 0.0584 | 0.0669 |  | 0.064 | 0.0709 | 0.0593 | 0.0581 | 0.0594 | 0.0556 | 0.0525 | 0.0566 |
| H29N | 0.0568 | 0.0544 | 0.0524 | 0.0419 | 0.077 |  | 0.043 | 0.0658 | 0.0342 | 0.0708 | 0.0822 | 0.0634 | 0.0582 | 0.0541 | 0.0585 |  | 0.0424 |  |  |
| H47E | 0.059 | 0.0649 | 0.0557 | 0.0579 |  |  | 0.0639 | 0.0887 |  | 0.0595 | 0.0427 | 0.0704 | 0.0611 | 0.0688 |  |  | 0.0504 |  | 0.0458 |
| N53M | 0.0185 | 0.0598 | 0.0523 | 0.0354 | 0.0564 | 0.0614 | 0.0549 | 0.0634 | 0.0702 | 0.0665 | 0.0549 | 0.0569 | 0.0661 | 0.0432 | 0.0592 | 0.0542 | 0.0558 | 0.064 | 0.0641 |
| I43S | 0.0486 | 0.0537 | 0.0469 |  | 0.0434 |  | 0.0483 | 0.0494 |  | 0.0484 | 0.0394 | 0.0486 | 0.0465 | 0.0443 | 0.06 | 0.0482 | 0.0473 | 0.0466 | 0.0648 |
